PMC5892938
The list shows a part of the results. At the low end of the ranking the order means little.
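Also: DESeq read counts versus GST-SBP nonspecific binding control pulldown.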

What follows are sequences tested against GST-SBP-SLBP (stem-loop binding protein) (UniProt Q14493) (assay: targeted RNA Bind-n-Seq). Conditions: RBNS binding buffer: 25 mM Tris pH 7.5, 150 mM KCl, 3 mM MgCl2, 0.1% Tween, 0.5 mg/mL BSA, 1 mM DTT; 27 nM protein, 750 pM RNA pool; temperature not stated; high values mean tight binding.
“GGUCACGUCUCAAUCAACUCAUCCCCAGGAGUUUCCUCCUGUUUUUUCAACAGCUCGCAGUCAAG” showed a binding signal (log2 fold change) of -0.0869. In the case of “GGUCACGUCUCAAUCAACUCAAUCGCAGGAGUUUCCUCCUGGUUUCUCAACAGCUCGCAGUCAAG”, the binding signal (log2 fold change) is reported as 0.133. With “GGUCACGUCUCAAUCAACUCAAUUUCCAGGGAAACCCCUGGCUUAUUCAACAGCUCGCAGUCAAG” the binding signal (log2 fold change) was -0.246. Sequence “GGUCACGUCUCAAUCAACUCUUCGGAGGGGGGGAAAACCCCUUUACCCUCAUUCUCAACAGCUCGCAGUCAAG” has a binding signal (log2 fold change) of -0.425. Work on “GGUCACGUCUCAAUCAACUCUUCGUCCAGGGAAAACCCUGGCUUUUUCAACAGCUCGCAGUCAAG” yielded a binding signal (log2 fold change) of -0.102. With “GGUCACGUCUCAAUCAACUCAACUUCCAGGGAAAACCCUGGCAAUCUCAACAGCUCGCAGUCAAG” the binding signal (log2 fold change) was -0.139. “GGUCACGUCUCAAUCAACUCUACUCCAGGAGUUUCCUCCUGUUUUUUCAACAGCUCGCAGUCAAG” gave a binding signal (log2 fold change) of -0.129. “GGUCACGUCUCAAUCAACUCAACUCCCAGGGAAAUCCCUGGUUAAUUCAACAGCUCGCAGUCAAG” gave a binding signal (log2 fold change) of 0.133. “GGUCACGUCUCAAUCAACUCAACUCCCAGGGAAACCCCUGGCUAACUCAACAGCUCGCAGUCAAG” showed a binding signal (log2 fold change) of -0.0607. In the case of “GGUCACGUCUCAAUCAACUCUUCGUCCAGGGAAAACCCUGGUUUUCUCAACAGCUCGCAGUCAAG”, the binding signal (log2 fold change) is reported as 0.335. “GGUCACGUCUCAAUCAACUCUUCAGAGGGGGGGAAAACCCCUUUGCCCUCAAUCUCAACAGCUCGCAGUCAAG” gave a binding signal (log2 fold change) of -0.526. “GGUCACGUCUCAAUCAACUCCUCAGAGGGGGGGAAAACCCCUUUACCCUCACCUUCAACAGCUCGCAGUCAAG” was tested, and the binding signal (log2 fold change) was -0.104. “GGUCACGUCUCAAUCAACUCCACAGAGGGGGGGAAAACCCCUUUGCCCUCCACAUCAACAGCUCGCAGUCAAG” was tested, and the binding signal (log2 fold change) was -0.247. “GGUCACGUCUCAAUCAACUCUUUCUCCAGGGAAAGCCCUGGUUAUGUCAACAGCUCGCAGUCAAG” was tested, and the binding signal (log2 fold change) was -0.127. For “GGUCACGUCUCAAUCAACUCUUUUCCAGGAGUUUCCUCCUGCAAAUUCAACAGCUCGCAGUCAAG”, the binding signal (log2 fold change) was -0.0502. In the case of “GGUCACGUCUCAAUCAACUCAGUUUCCAGGGAAAACCCUGGUUUUUUCAACAGCUCGCAGUCAAG”, the binding signal (log2 fold change) is reported as 0.201. For “GGUCACGUCUCAAUCAACUCAUCCUCCAGGGAAAGCCCUGGUUUUCUCAACAGCUCGCAGUCAAG”, the binding signal (log2 fold change) was 0.251. “GGUCACGUCUCAAUCAACUCAAAGGAGGGGGGGAAAACCCCUUUACCCUCAAUCUCAACAGCUCGCAGUCAAG” was tested, and the binding signal (log2 fold change) was 0.116. “GGUCACGUCUCAAUCAACUCAUCCCCAGGAGUUUCCUCCUGUUUAUUCAACAGCUCGCAGUCAAG” gave a binding signal (log2 fold change) of 0.0825. “GGUCACGUCUCAAUCAACUCAUCUUCCAGGGAAAGCCCUGGUUAACUCAACAGCUCGCAGUCAAG” was tested, and the binding signal (log2 fold change) was -0.0611. “GGUCACGUCUCAAUCAACUCAAUCUCAGGAGUUUUCUCCUGUAAACUCAACAGCUCGCAGUCAAG” gave a binding signal (log2 fold change) of 0.0446. Work on “GGUCACGUCUCAAUCAACUCAUCAGAGGGGGGGAAAACCCCUUUACCCUCAUUUUCAACAGCUCGCAGUCAAG” yielded a binding signal (log2 fold change) of -0.257. In the case of “GGUCACGUCUCAAUCAACUCUUCGUCCAGGGAAAACCCUGGUUUUUUCAACAGCUCGCAGUCAAG”, the binding signal (log2 fold change) is reported as -0.073. “GGUCACGUCUCAAUCAACUCUUUUCCCAGGGAAAACCCUGGCUUUUUCAACAGCUCGCAGUCAAG” showed a binding signal (log2 fold change) of -0.221. “GGUCACGUCUCAAUCAACUCUCUAGAGGGGGGGAAAACCCCUUUGCCCUCCUAAUCAACAGCUCGCAGUCAAG” showed a binding signal (log2 fold change) of 0.118. Sequence “GGUCACGUCUCAAUCAACUCUUUUUCCAGGGAAAUCCCUGGCUAUUUCAACAGCUCGCAGUCAAG” has a binding signal (log2 fold change) of -0.0451. Sequence “GGUCACGUCUCAAUCAACUCAACUUCCAGGGAAAUCCCUGGUAAAUUCAACAGCUCGCAGUCAAG” has a binding signal (log2 fold change) of -0.226. With “GGUCACGUCUCAAUCAACUCAUCUCCCAGGGAAAUCCCUGGCAAAUUCAACAGCUCGCAGUCAAG” the binding signal (log2 fold change) was -0.106. “GGUCACGUCUCAAUCAACUCUUCCCCAGGAGUUUCCUCCUGCAUAUUCAACAGCUCGCAGUCAAG” was tested, and the binding signal (log2 fold change) was 0.014. Sequence “GGUCACGUCUCAAUCAACUCCUCGGAGGGGGGGAAAACCCCUUUACCCUCAUCAUCAACAGCUCGCAGUCAAG” has a binding signal (log2 fold change) of -0.0537. For “GGUCACGUCUCAAUCAACUCACUAGAGGGGGGGAAAACCCCUUUGCCCUCACUAUCAACAGCUCGCAGUCAAG”, the binding signal (log2 fold change) was -0.0982. For “GGUCACGUCUCAAUCAACUCAUCUUCAGGAGUUUUCUCCUGCAAUUUCAACAGCUCGCAGUCAAG”, the binding signal (log2 fold change) was 0.141. For “GGUCACGUCUCAAUCAACUCUACUUCCAGGGAAAUCCCUGGCUUAUUCAACAGCUCGCAGUCAAG”, the binding signal (log2 fold change) was -0.012. “GGUCACGUCUCAAUCAACUCCUUCGAGGGGGGGAAAACCCCUUUACCCUCAUUUUCAACAGCUCGCAGUCAAG” gave a binding signal (log2 fold change) of -0.0861. Sequence “GGUCACGUCUCAAUCAACUCAUCCUCAGGAGUUUGCUCCUGCAAUUUCAACAGCUCGCAGUCAAG” has a binding signal (log2 fold change) of 0.101. Sequence “GGUCACGUCUCAAUCAACUCCAUAGAGGGGGGGAAAACCCCUUUGCCCUCAUUUUCAACAGCUCGCAGUCAAG” has a binding signal (log2 fold change) of 0.381. For “GGUCACGUCUCAAUCAACUCAUUUCCCAGGGAAAACCCUGGUAAUCUCAACAGCUCGCAGUCAAG”, the binding signal (log2 fold change) was 0.0456. “GGUCACGUCUCAAUCAACUCUUUUUCCAGGGAAAGCCCUGGCAUGUUCAACAGCUCGCAGUCAAG” was tested, and the binding signal (log2 fold change) was 0.337. Sequence “GGUCACGUCUCAAUCAACUCAAUUUCCAGGGAAAGCCCUGGCUUACUCAACAGCUCGCAGUCAAG” has a binding signal (log2 fold change) of -0.0842. “GGUCACGUCUCAAUCAACUCAUCUUCCAGGGAAAGCCCUGGCAAUUUCAACAGCUCGCAGUCAAG” gave a binding signal (log2 fold change) of 0.0814. In the case of “GGUCACGUCUCAAUCAACUCAUUUUCAGGAGUUUGCUCCUGUAUUCUCAACAGCUCGCAGUCAAG”, the binding signal (log2 fold change) is reported as 0.0961. In the case of “GGUCACGUCUCAAUCAACUCUAUGGAGGGGGGGAAAACCCCUUUACCCUCAACUUCAACAGCUCGCAGUCAAG”, the binding signal (log2 fold change) is reported as -0.115. With “GGUCACGUCUCAAUCAACUCUCUAGAGGGGGGGAAAACCCCUUUGCCCUCACACUCAACAGCUCGCAGUCAAG” the binding signal (log2 fold change) was 0.353. “GGUCACGUCUCAAUCAACUCACUAGAGGGGGGGAAAACCCCUUUGCCCUCACAUUCAACAGCUCGCAGUCAAG” was tested, and the binding signal (log2 fold change) was -0.266. With “GGUCACGUCUCAAUCAACUCCAAAGAGGGGGGGAAAACCCCUUUACCCUCAACAUCAACAGCUCGCAGUCAAG” the binding signal (log2 fold change) was -0.0929. “GGUCACGUCUCAAUCAACUCUUUCCCAGGAGUUUUCUCCUGCAUACUCAACAGCUCGCAGUCAAG” was tested, and the binding signal (log2 fold change) was 0.127. For “GGUCACGUCUCAAUCAACUCAUCUUCAGGAGUUUGCUCCUGUAAUCUCAACAGCUCGCAGUCAAG”, the binding signal (log2 fold change) was -0.0258. For “GGUCACGUCUCAAUCAACUCACACGAGGGGGGGAAAACCCCUUUGCCCUCAUAAUCAACAGCUCGCAGUCAAG”, the binding signal (log2 fold change) was 0.14. Work on “GGUCACGUCUCAAUCAACUCUUAAGAGGGGGGGAAAACCCCUUUGCCCUCACUAUCAACAGCUCGCAGUCAAG” yielded a binding signal (log2 fold change) of -0.0925. “GGUCACGUCUCAAUCAACUCAUUCCCAGGAGUUUGCUCCUGUAAUCUCAACAGCUCGCAGUCAAG” gave a binding signal (log2 fold change) of 0.107. Work on “GGUCACGUCUCAAUCAACUCAUCUUCCAGGGAAACCCCUGGCAUUUUCAACAGCUCGCAGUCAAG” yielded a binding signal (log2 fold change) of -0.0946. With “GGUCACGUCUCAAUCAACUCUUUCUCCAGGGAAACCCCUGGUUAUUUCAACAGCUCGCAGUCAAG” the binding signal (log2 fold change) was 0.0475. Sequence “GGUCACGUCUCAAUCAACUCAUCAGAGGGGGGGAAAACCCCUUUACCCUCAAACUCAACAGCUCGCAGUCAAG” has a binding signal (log2 fold change) of -0.0656. “GGUCACGUCUCAAUCAACUCAUCGUCAGGAGUUUCCUCCUGUAUAUUCAACAGCUCGCAGUCAAG” was tested, and the binding signal (log2 fold change) was 0.186. For “GGUCACGUCUCAAUCAACUCUACUUCAGGAGUUUUCUCCUGCUAUGUCAACAGCUCGCAGUCAAG”, the binding signal (log2 fold change) was -0.0671. “GGUCACGUCUCAAUCAACUCAUCAGAGGGGGGGAAAACCCCUUUACCCUCAUAAUCAACAGCUCGCAGUCAAG” showed a binding signal (log2 fold change) of -0.304. Sequence “GGUCACGUCUCAAUCAACUCCUUAGAGGGGGGGAAAACCCCUUUACCCUCCGCAUCAACAGCUCGCAGUCAAG” has a binding signal (log2 fold change) of -0.461. For “GGUCACGUCUCAAUCAACUCAAUCUCAGGAGUUUACUCCUGUUAUCUCAACAGCUCGCAGUCAAG”, the binding signal (log2 fold change) was -0.107. “GGUCACGUCUCAAUCAACUCUUCGUCCAGGGAAAUCCCUGGUUAAUUCAACAGCUCGCAGUCAAG” was tested, and the binding signal (log2 fold change) was -0.25. “GGUCACGUCUCAAUCAACUCAGUCCCCAGGGAAAACCCUGGUAUUUUCAACAGCUCGCAGUCAAG” gave a binding signal (log2 fold change) of -0.0907. In the case of “GGUCACGUCUCAAUCAACUCUCUCGAGGGGGGGAAAACCCCUUUACCCUCAUUAUCAACAGCUCGCAGUCAAG”, the binding signal (log2 fold change) is reported as -0.0145. “GGUCACGUCUCAAUCAACUCUUCGUCCAGGGAAAUCCCUGGCAUAUUCAACAGCUCGCAGUCAAG” was tested, and the binding signal (log2 fold change) was -0.0664. In the case of “GGUCACGUCUCAAUCAACUCCUACGAGGGGGGGAAAACCCCUUUACCCUCCACAUCAACAGCUCGCAGUCAAG”, the binding signal (log2 fold change) is reported as 0.0795. For “GGUCACGUCUCAAUCAACUCUAUGUCCAGGGAAACCCCUGGCUUUUUCAACAGCUCGCAGUCAAG”, the binding signal (log2 fold change) was -0.124. Sequence “GGUCACGUCUCAAUCAACUCUAUUCCAGGAGUUUCCUCCUGCAUUCUCAACAGCUCGCAGUCAAG” has a binding signal (log2 fold change) of 0.101. “GGUCACGUCUCAAUCAACUCAGUUCCAGGAGUUUGCUCCUGCAUUUUCAACAGCUCGCAGUCAAG” gave a binding signal (log2 fold change) of 0.058. Sequence “GGUCACGUCUCAAUCAACUCAUCCCCCAGGGAAAUCCCUGGCUAUUUCAACAGCUCGCAGUCAAG” has a binding signal (log2 fold change) of -0.0229. Sequence “GGUCACGUCUCAAUCAACUCAAUUCCAGGAGUUUACUCCUGUAUAUUCAACAGCUCGCAGUCAAG” has a binding signal (log2 fold change) of -0.0755. Work on “GGUCACGUCUCAAUCAACUCUUUCUCCAGGGAAACCCCUGGCAUAUUCAACAGCUCGCAGUCAAG” yielded a binding signal (log2 fold change) of -0.123. “GGUCACGUCUCAAUCAACUCCUUAGAGGGGGGGAAAACCCCUUUACCCUCACCAUCAACAGCUCGCAGUCAAG” showed a binding signal (log2 fold change) of -0.3. Work on “GGUCACGUCUCAAUCAACUCUUAAGAGGGGGGGAAAACCCCUUUGCCCUCAACAUCAACAGCUCGCAGUCAAG” yielded a binding signal (log2 fold change) of 0.0647. With “GGUCACGUCUCAAUCAACUCUACUCCAGGAGUUUACUCCUGUUAAUUCAACAGCUCGCAGUCAAG” the binding signal (log2 fold change) was 0.281. Sequence “GGUCACGUCUCAAUCAACUCUUCUCCAGGAGUUUCCUCCUGCAUACUCAACAGCUCGCAGUCAAG” has a binding signal (log2 fold change) of 0.115.
